# Test results from paper PMC10668032.
# Some of the results follow. At the low end of the ranking the order means little.
# Biological target: SIX1-Q177R homeodomain (UniProt Q15475)
# Experiment: universal protein binding microarray
# Details: Universal all-10-mer PBM (8x60K, AMADID 030236), 300 nM GST-tagged protein, Alexa Fluor 488 anti-GST; buffer, salt, pH and temperature not stated; high values mean tight binding; most listed sequences are background and not binding sites; double strand, one strand shown
row,Sequence,binding signal [E-score]
1,GACATGTC,-0.142
2,ACGGGAAG,-0.0811
3,CATCCAGC,-0.258
4,CGTATTCA,-0.102
5,CGCCCGCC,0.036
6,GCAAAAGA,-0.356
7,CCCAATCG,0.0369
8,CACAACCA,0.0251
9,CTTACGCC,0.0495
10,AATTAGGT,-0.036
11,AGCGACTA,-0.00444
12,GGATAGAC,-0.0792
13,CGACTAAA,-0.0625
14,GAGAGACA,0.0496
15,AGGACGAA,-0.112
16,CCTACTCA,0.0456
17,AATTCTGA,-0.0668
18,CTTCGTAA,-0.207
19,CACGTCTC,0.0548
20,GCTTTACA,-0.028
21,AATGCGGA,-0.0909
22,CTTGGATC,0.123
23,CCCCTGAA,0.153
24,CTGTTAAG,-0.117

row,Sequence,binding signal [E-score]
1,ATAGTTTC,-0.241
2,GCCCTGTA,-0.0173
3,AACTCCAG,-0.000985
4,AGCAAACT,-0.181
5,ACTCTAGG,0.0647
6,AATAGTGT,0.355
7,CAGCGATG,-0.241
8,CACATGCC,-0.131
9,AGGGCGTC,0.119
10,GGATGTAA,0.0322
11,CTCTCTAA,-0.198
12,AACTTGTC,-0.263
13,ATGTTTTG,-0.139
14,AATAACCG,-0.238
15,AAGCGTAC,-0.00592
16,GAGAGCCA,-0.136
17,CAGCATTC,-0.228
18,CGACGGGC,0.0314
19,CATGCTCA,-0.0224
20,GATTTCTA,-0.139
21,AACACGGA,0.372
22,AACCCGCC,0.112
23,CGTGGACC,-0.12
24,CCGGACCG,-0.0778

row,Sequence,binding signal [E-score]
1,ATCTCGAC,-0.19
2,CGACTACA,0.098
3,GCGCATTA,0.113
4,AAGCTACA,0.178
5,CCAATCGC,0.0213
6,ATTCTGCC,-0.291
7,ACCGCGGT,0.187
8,GGTGTCTA,0.468
9,GGGCTTAC,0.0465
10,CTAACATA,-0.221
11,CCACCGCC,0.136
12,ACCGGAGC,0.0343
13,GATACTGA,0.12
14,CGCGACGA,-0.309
15,TCCGCTCA,-0.0184
16,AATTCGCT,-0.191
17,ATCCCCAG,0.04
18,AGAACACA,0.249
19,CTTTGCGC,-0.0123
20,GGAATGAA,-0.114
21,GGAGTTCA,0.0916
22,TCTCAGCA,-0.142
23,AACCGCGC,-0.0865
24,CAGCGTGA,0.0115

row,Sequence,binding signal [E-score]
1,CCTGCATC,-0.136
2,ACAGCACT,-0.0576
3,CGGGATAG,-0.0896
4,GCGACTGA,-0.289
5,ACCCAGTA,0.175
6,GACAACGC,-0.124
7,GCGTTTTA,0.0462
8,ACTCTCCC,0.163
9,GTACCATA,0.096
10,CTATGTTC,-0.0811
11,CATGACAC,0.473
12,GATATGTA,-0.208
13,AACTAATT,-0.183
14,GCGGACGA,-0.00224
15,AAAAGTTC,-0.251
16,ACTTTATA,-0.0635
17,CCTCTGAA,0.0604
18,TAAGCACA,0.141
19,CCGGCCCG,0.141
20,GCCCATCC,0.101
21,CATAACTA,0.0581
22,AGTCGTTG,-0.218
